Measured values published in the supplement of paper PMC9927326.
MIC of clinical C. albicans isolates, CLSI broth microdilution (ranges and time not stated); higher = less susceptible. Call: susceptible or wild type [S] / resistant or non-wild type [R] by CLSI breakpoints or epidemiological cut-offs; intermediate and dose-dependent carry no call here (the paper groups them with resistant). '<=' and '>=' mark each drug's lowest and highest value, inferred; the source prints them plain. Isolates are numbered anew.

Experiments:
Test in all cases: CLSI broth microdilution.
[1] = compound: CCC(C)n1ncn(-c2ccc(N3CCN(c4ccc(OCC5COC(Cn6cncn6)(c6ccc(Cl)cc6Cl)O5)cc4)CC3)cc2)c1=O [itraconazole]
[2] = compound: CCCCCOc1ccc(-c2cc(-c3ccc(C(=O)N[C@H]4C[C@@H](O)[C@@H](O)NC(=O)[C@@H]5[C@@H](O)[C@@H](C)CN5C(=O)[C@H]([C@H](O)CC(N)=O)NC(=O)[C@H]([C@H](O)[C@@H](O)c5ccc(O)c(OS(=O)(=O)O)c5)NC(=O)[C@@H]5C[C@@H](O)CN5C(=O)[C@H]([C@@H](C)O)NC4=O)cc3)no2)cc1 [micafungin]
[3] = compound: CCCCCOc1ccc(-c2ccc(-c3ccc(C(=O)N[C@H]4C[C@@H](O)[C@@H](O)NC(=O)[C@@H]5[C@@H](O)[C@@H](C)CN5C(=O)[C@H]([C@@H](C)O)NC(=O)[C@H]([C@H](O)[C@@H](O)c5ccc(O)cc5)NC(=O)[C@@H]5C[C@@H](O)CN5C(=O)[C@H]([C@@H](C)O)NC4=O)cc3)cc2)cc1 [anidulafungin]
[4] = compound: CC[C@@H]([C@H](C)O)n1ncn(-c2ccc(N3CCN(c4ccc(OC[C@@H]5CO[C@@](Cn6cncn6)(c6ccc(F)cc6F)C5)cc4)CC3)cc2)c1=O [posaconazole]
[5] = compound: CC[C@H](C)C[C@H](C)CCCCCCCCC(=O)N[C@H]1C[C@@H](O)[C@@H](NCCN)NC(=O)[C@@H]2[C@@H](O)CCN2C(=O)[C@H]([C@H](O)CCN)NC(=O)[C@H]([C@H](O)[C@@H](O)c2ccc(O)cc2)NC(=O)[C@@H]2C[C@@H](O)CN2C(=O)[C@H]([C@@H](C)O)NC1=O [caspofungin]
[6] = compound: C[C@@H](c1ncncc1F)[C@](O)(Cn1cncn1)c1ccc(F)cc1F [voriconazole]
[7] = compound: C[C@@H]1[C@H](O)[C@@H](C)/C=C/C=C/C=C/C=C/C=C/C=C/C=C/[C@H](O[C@@H]2O[C@H](C)[C@@H](O)[C@H](N)[C@@H]2O)C[C@@H]2O[C@](O)(C[C@@H](O)C[C@@H](O)[C@H](O)CC[C@@H](O)C[C@@H](O)CC(=O)O[C@H]1C)C[C@H](O)[C@H]2C(=O)O [amphotericin B]
[8] = compound: Nc1[nH]c(=O)ncc1F [flucytosine]
[9] = compound: OC(Cn1cncn1)(Cn1cncn1)c1ccc(F)cc1F [fluconazole]

| Test System | MIC [1] | MIC [2] | MIC [3] | MIC [4] | MIC [5] | MIC [6] | MIC [7] | MIC [8] | MIC [9] |
| --- | --- | --- | --- | --- | --- | --- | --- | --- | --- |
| Candida albicans isolate 34 (Erg11p: V488I,E266D, Fur1p: WT, Tac1p: N896S,I895T) | 0.03 mg/L [S] | 0.015 mg/L [S] | 0.12 mg/L [S] | 0.015 mg/L [S] | 0.06 mg/L [S] | ≤ 0.008 mg/L [S] | 0.25 mg/L [S] | ≤ 0.06 mg/L [S] | 0.5 mg/L [S] |
| Candida albicans isolate 22 (Erg11p: V488I,E266D,Y132H,T123I, Fur1p: R101C, Tac1p: M170V,S108N) | 0.03 mg/L [S] | 0.015 mg/L [S] | 0.06 mg/L [S] | 0.015 mg/L [S] | 0.06 mg/L [S] | ≤ 0.008 mg/L [S] | 0.5 mg/L [S] | ≤ 0.06 mg/L [S] | 0.5 mg/L [S] |
| Candida albicans isolate 136 (Erg11p: WT, Fur1p: WT, Tac1p: I895T) | 0.06 mg/L [S] | 0.015 mg/L [S] | ≤ 0.015 mg/L [S] | 0.06 mg/L [S] | 0.015 mg/L [S] | 0.015 mg/L [S] | 1 mg/L [S] | ≤ 0.06 mg/L [S] | 0.5 mg/L [S] |
| Candida albicans isolate 19 (Erg11p: WT, Fur1p: S8N, Tac1p: N896S) | 0.06 mg/L [S] | ≤ 0.008 mg/L [S] | 0.06 mg/L [S] | 0.03 mg/L [S] | 0.12 mg/L [S] | ≤ 0.008 mg/L [S] | 0.25 mg/L [S] | 0.12 mg/L [S] | 0.25 mg/L [S] |
| Candida albicans isolate 213 (Erg11p: WT, Fur1p: WT, Tac1p: N896S,I558V,A377V,F189S,N174D,M170I,K87N) | 0.06 mg/L [S] | 0.015 mg/L [S] | 0.03 mg/L [S] | 0.03 mg/L [S] | 0.03 mg/L [S] | ≤ 0.008 mg/L [S] | 0.25 mg/L [S] | ≤ 0.06 mg/L [S] | 0.5 mg/L [S] |
| Candida albicans isolate 109 (Erg11p: Y132H,T123I, Fur1p: R101C, Tac1p: WT) | 0.12 mg/L [S] | 0.015 mg/L [S] | ≤ 0.015 mg/L [S] | 0.03 mg/L [S] | 0.015 mg/L [S] | 0.5 µg/mL | 0.5 mg/L [S] | 0.5 mg/L [S] | 4 µg/mL |
| Candida albicans isolate 114 (Erg11p: E266D,G129A, Fur1p: WT, Tac1p: R869Q,L695F,I558V,A377V,F189S,M170V,L131I) | ≤ 0.015 mg/L [S] | 0.015 mg/L [S] | ≤ 0.015 mg/L [S] | 0.015 mg/L [S] | 0.015 mg/L [S] | ≤ 0.008 mg/L [S] | 0.25 mg/L [S] | ≤ 0.06 mg/L [S] | 0.5 mg/L [S] |
| Candida albicans isolate 84 (Erg11p: E266D, Fur1p: WT, Tac1p: N896S) | 0.03 mg/L [S] | ≤ 0.008 mg/L [S] | 0.12 mg/L [S] | 0.015 mg/L [S] | 0.06 mg/L [S] | ≤ 0.008 mg/L [S] | 0.5 mg/L [S] | ≤ 0.06 mg/L [S] | 0.5 mg/L [S] |
| Candida albicans isolate 171 (Erg11p: E266D, Fur1p: WT, Tac1p: N896S) | 0.06 mg/L [S] | 0.015 mg/L [S] | 0.03 mg/L [S] | 0.06 mg/L [S] | 0.06 mg/L [S] | 0.03 mg/L [S] | 0.5 mg/L [S] | 0.12 mg/L [S] | 2 mg/L [S] |
| Candida albicans isolate 143 (Erg11p: V488I,E266D, Fur1p: WT, Tac1p: N896S,M170V,S108N) | 0.03 mg/L [S] | 0.015 mg/L [S] | ≤ 0.015 mg/L [S] | 0.03 mg/L [S] | 0.03 mg/L [S] | ≤ 0.008 mg/L [S] | 0.5 mg/L [S] | ≤ 0.06 mg/L [S] | 0.25 mg/L [S] |
| Candida albicans isolate 118 (Erg11p: Y132H,T123I, Fur1p: R101C, Tac1p: WT) | 0.06 mg/L [S] | ≤ 0.008 mg/L [S] | ≤ 0.015 mg/L [S] | 0.03 mg/L [S] | 0.015 mg/L [S] | 0.25 µg/mL | 0.5 mg/L [S] | 0.12 mg/L [S] | 2 mg/L [S] |
| Candida albicans isolate 139 (Erg11p: Y257H,A114S, Fur1p: R101C, Tac1p: A736V) | 1 mg/L [R] | 0.015 mg/L [S] | ≤ 0.015 mg/L [S] | 1 mg/L [R] | 0.03 mg/L [S] | 1 mg/L [R] | 0.25 mg/L [S] | 0.12 mg/L [S] | 32 mg/L [R] |
| Candida albicans isolate 362 (Erg11p: D153E, Fur1p: WT, Tac1p: N896S) | 0.06 mg/L [S] | 0.015 mg/L [S] | 0.03 mg/L [S] | 0.03 mg/L [S] | 0.03 mg/L [S] | ≤ 0.008 mg/L [S] | 0.25 mg/L [S] | ≤ 0.06 mg/L [S] | 0.5 mg/L [S] |
| Candida albicans isolate 361 (Erg11p: D153E, Fur1p: WT, Tac1p: N896S) | 0.03 mg/L [S] | 0.015 mg/L [S] | 0.03 mg/L [S] | 0.015 mg/L [S] | 0.03 mg/L [S] | ≤ 0.008 mg/L [S] | 0.25 mg/L [S] | ≤ 0.06 mg/L [S] | 0.5 mg/L [S] |
| Candida albicans isolate 120 (Erg11p: D153E,Y132H, Fur1p: WT, Tac1p: N896S) | ≥ 16 mg/L [R] | ≤ 0.008 mg/L [S] | 0.12 mg/L [S] | ≥ 8 mg/L [R] | 0.03 mg/L [S] | ≥ 8 mg/L [R] | 0.5 mg/L [S] | 0.12 mg/L [S] | ≥ 256 mg/L [R] |
| Candida albicans isolate 239 (Erg11p: WT, Fur1p: WT, Tac1p: WT) | 0.03 mg/L [S] | 0.015 mg/L [S] | 0.03 mg/L [S] | 0.015 mg/L [S] | 0.03 mg/L [S] | ≤ 0.008 mg/L [S] | 0.5 mg/L [S] | ≤ 0.06 mg/L [S] | 0.5 mg/L [S] |
| Candida albicans isolate 178 (Erg11p: V488I,E266D, Fur1p: WT, Tac1p: N896S,I895T) | 0.03 mg/L [S] | 0.015 mg/L [S] | ≤ 0.015 mg/L [S] | 0.03 mg/L [S] | 0.03 mg/L [S] | ≤ 0.008 mg/L [S] | 0.5 mg/L [S] | 0.12 mg/L [S] | 0.25 mg/L [S] |
